Test results published in article PMC4336329 (PLoS ONE, 2015).
Screen size: about 310,000 compounds; about 2,200 (0.71%) showed an effect of 50% or more. Effects have a minus sign here. Some of the results follow.

target: human ether-à-go-go-related gene (hERG) potassium channel (human, UniProt Q12809); assay: primary screen, population patch clamp on CHO cells stably expressing hERG
Sequence (Q12809 whole entry, looked up): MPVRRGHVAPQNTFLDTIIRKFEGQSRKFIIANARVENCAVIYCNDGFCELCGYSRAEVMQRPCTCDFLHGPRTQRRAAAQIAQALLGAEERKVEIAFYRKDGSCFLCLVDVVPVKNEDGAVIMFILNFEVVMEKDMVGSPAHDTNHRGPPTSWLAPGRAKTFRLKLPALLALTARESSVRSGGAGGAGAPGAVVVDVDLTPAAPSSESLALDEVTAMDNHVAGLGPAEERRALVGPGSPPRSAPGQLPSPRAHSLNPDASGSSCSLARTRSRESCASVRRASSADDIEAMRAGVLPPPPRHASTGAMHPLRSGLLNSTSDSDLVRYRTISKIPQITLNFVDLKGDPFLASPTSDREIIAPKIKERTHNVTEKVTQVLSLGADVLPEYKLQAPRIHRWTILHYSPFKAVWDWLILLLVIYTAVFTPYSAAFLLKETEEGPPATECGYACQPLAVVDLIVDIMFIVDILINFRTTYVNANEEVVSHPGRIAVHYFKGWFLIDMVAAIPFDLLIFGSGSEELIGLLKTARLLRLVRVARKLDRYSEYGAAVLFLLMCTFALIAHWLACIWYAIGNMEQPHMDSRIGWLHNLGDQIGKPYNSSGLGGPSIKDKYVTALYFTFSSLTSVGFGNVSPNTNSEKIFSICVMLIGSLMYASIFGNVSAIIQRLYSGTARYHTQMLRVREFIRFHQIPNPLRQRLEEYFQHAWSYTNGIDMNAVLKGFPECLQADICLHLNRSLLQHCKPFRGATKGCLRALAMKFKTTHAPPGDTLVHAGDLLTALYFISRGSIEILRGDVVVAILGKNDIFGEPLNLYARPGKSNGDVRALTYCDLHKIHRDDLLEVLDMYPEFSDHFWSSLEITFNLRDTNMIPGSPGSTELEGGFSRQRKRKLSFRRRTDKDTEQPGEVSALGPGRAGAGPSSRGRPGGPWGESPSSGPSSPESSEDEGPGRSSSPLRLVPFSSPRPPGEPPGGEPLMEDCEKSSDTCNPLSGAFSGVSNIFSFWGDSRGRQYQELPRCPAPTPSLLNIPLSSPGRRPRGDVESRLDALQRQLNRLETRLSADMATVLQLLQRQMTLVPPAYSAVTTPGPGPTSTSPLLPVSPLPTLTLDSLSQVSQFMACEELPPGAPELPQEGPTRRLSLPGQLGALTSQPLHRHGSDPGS

Point of comparison: `Cc1ccc(C(C[N+](=O)[O-])n2nc(C)cc2C)cc1` (centres unmarked), “hERG current change (%, negative = inhibition) at 1uM” value 17.6%. Against it:
- Cc1ccc(C)c(C(=O)COc2ncnc3ccccc23)c1 — lower, 11.8%
- CCNC(=O)C(CCSC)NS(=O)(=O)c1ccc(C)cc1 (centres unmarked) — lower, 2.77%
- COc1cccc(-c2cc3nc4c(c(NCC(C)(C)CN(C)C)n3n2)CCCC4)c1 — higher, 18.3%
- COc1cc(CN2CCN(CC3CC3)CC2CCO)cc(OC)c1 (centres unmarked) — lower, 3.66%
- CC1=NN(c2ccccc2)C(=O)/C1=C\N1CC(C)OC(C)C1 (centres unmarked) — lower, -5.63%
- O=C(CSc1ccc(-c2cccnc2)nn1)c1ccc([N+](=O)[O-])cc1 — lower, -1.58%
- CCOc1ccc(-c2cn3ccccc3n2)cc1[N+](=O)[O-] — lower, -29.7%
- CCCN(CCC)S(=O)(=O)c1ccc(C(=O)NCc2ccc3c(c2)OCO3)cc1 — lower, 8.55%
- COC(=O)c1sc2nc3c(cc2c1N)C(=O)CC(C)(C)C3 — higher, 18.8%
- CC(C)C[C@H](NC(=O)c1nc[nH]c1C(=O)NC(c1ccccc1)c1ccccc1)C(=O)OC(C)(C)C — higher, 17.7%
- COc1ccc(-n2nnnc2SCc2nc(N)nc(N3CCOCC3)n2)cc1 — lower, 10.2%
- Cc1cc(OCc2cc(C(=O)N(C)C3CCOCC3)no2)cc(C)c1Cl — lower, 12.8%
- COc1ccc(-c2cc(C(F)F)n3ncc(C(=O)Nc4cc(C)on4)c3n2)cc1 — lower, 10.7%
- Cc1ccc2c(c1)N(CC(=O)NCCCN1CCCC1)C(=O)CO2 — lower, 9.09%
- CCN1C(=O)C(C)S/C1=N\S(=O)(=O)c1ccc(F)cc1 (centres unmarked) — lower, 9.52%
- Cc1nc2ccccn2c(=O)c1NC(=O)c1cccc2ccccc12 — lower, -1.13%
- N#Cc1c(N)nc2c(c1-c1ccncc1)CCCCCC2 — lower, -1.65%
- COc1cc(NC(=O)c2cccs2)c(C(=O)OCC(=O)NC(C)c2ccccc2)cc1OC (centres unmarked) — higher, 21.6%
- Cc1cc(C(=O)CSc2nc(N)cc(=O)[nH]2)c(C)n1CCc1ccc(Cl)cc1 — the same, 17.6%
- CN(CCCNC(=O)COc1cc(=O)n(C)c2ccccc12)Cc1ccccc1 — lower, -3.31%
- Cc1ccc2c(c1)N(C(=O)CCC(=O)N1CCN(c3ccccn3)CC1)CC(C)O2 (centres unmarked) — lower, -6.88%
- CCCN(C(=O)c1cc(S(=O)(=O)N2CCCCC2)ccc1Cl)C1CCS(=O)(=O)C1 (centres unmarked) — lower, 2.11%
- COc1ccccc1Nc1ncnc2c1c(C)c(C)n2CCO — lower, 9.07%
- CC1(C)C(=O)OC(c2c(F)c(F)c(F)c(F)c2F)C2(CCCCC2)C1=O (centres unmarked) — lower, 15%
- CCc1nc(SCC(=O)Nc2cccc3ccccc23)[nH]c(=O)c1C — lower, 14.6%
- CC1CCC(NC(=O)CCS(=O)(=O)c2ccc3c(c2)NC(=O)CS3)CC1 (centres unmarked) — lower, 7.17%
- CCOC(=O)c1cnc(-n2nc(C)cc2C)nc1NC1CCCCC1 — lower, 8.39%
- COc1ccc(N2CCN(C(=O)COC(=O)CNC(=O)c3ccc(Cl)cc3Cl)CC2)cc1 — lower, -7.94%
- ClCC1=Nc2ccccc2Cc2ccccc21 — lower, 11.8%
- CCC(CO)(C(=O)OC1CC2CCC(C1)N2C)c1ccccc1.Cl (centres unmarked) — lower, 12.3%
- COc1cccc(C2CC(c3ccccc3)Nc3ncnn32)c1 (centres unmarked) — lower, 0.509%
- COc1ccccc1N1CCN(C2CCCCC2NS(=O)(=O)c2ccccc2)CC1 (centres unmarked) — lower, 1.35%
- Cc1ccc(C(=O)n2nc(-c3ccccc3)nc2NCc2ccco2)cc1 — lower, 14%
- COc1ccc(NC(=O)CCC(=O)NCc2ccco2)c([N+](=O)[O-])c1 — lower, 10%
- Clc1ccc(-c2ccc(C=Nc3ccc(N4CCOCC4)cc3)o2)cc1 — lower, -0.0857%
- O=[N+]([O-])c1cc(C=Nc2cccc3c(O)cccc23)ccc1Cl — lower, 14.8%
- CCCOc1cccc(C2C(C(=O)c3ccc(C)o3)=C(O)C(=O)N2CCN2CCOCC2)c1 (centres unmarked) — higher, 26.3%
- O=C(CC1NCCN(Cc2ccccc2)C1=O)Nc1ccccc1 (centres unmarked) — lower, 5.77%
- O=C(Nc1nccs1)C1CC=CCC1C(=O)OCC(F)(F)C(F)F (centres unmarked) — lower, 15.2%
- Cn1c(=O)c(=O)n(C)c2cc(S(=O)(=O)CCC(=O)Nc3ccc(C(F)(F)F)cc3)ccc21 — lower, 10.9%
- C=CCN1C(=O)NC(=O)/C(=C/c2c(CCN(C)C(=O)c3ccccc3)cc3c(c2OC)OCO3)C1=O — lower, 9.51%
- CCOc1ccc(S(=O)(=O)N2CCC(C(=O)N3CCN(c4ccccc4)CC3)CC2)cc1 — lower, 8.59%
- N#C/C(C(=O)Oc1ccccc1)=C1\C=CC=CN1 — lower, 9.65%
- CCCNC(=O)C1(O)c2cc(Br)ccc2NC(=O)N1c1ccc(Cl)cc1 (centres unmarked) — lower, 8.43%
- CCOc1cccc2sc(N(CCN(C)C)C(=O)c3ccc(Br)s3)nc12.Cl — lower, 6.64%
- O=Nc1c(O)[nH]c2ccc(Cl)cc12 — lower, 4.46%
- CC(=O)N1[C@H](C)C=C[C@]1(Cc1ccccc1)C(=O)NCc1cc(F)cc(C(F)(F)F)c1 — lower, 6.57%
- CN(C)S(=O)(=O)c1cccc(NC(=O)COC(=O)c2ccc(Br)o2)c1 — lower, 3.56%
- c1ccc2c(c1)NC(c1ccncc1)n1c-2nc2ccccc21 (centres unmarked) — lower, 6.75%
- Cc1ccc(NS(=O)(=O)c2ccc3c(c2)NC(=O)CO3)cc1 — lower, 12.7%
- c1cncc(-c2nc3ccccc3[nH]2)c1 — lower, 7.52%
- CNC(=S)N1CCN(c2nc(-c3ccc(Cl)cc3)cs2)CC1 — lower, 12.3%
- COCC(C)NC(=O)Cc1ccc(Cl)cc1 (centres unmarked) — lower, 11.7%
- COc1ccc(C(=O)/C=C/c2ccccc2)c(O)c1 — lower, 9.42%
- Cc1ccc(S(=O)(=O)NNC(=S)NC(=O)c2ccc([N+](=O)[O-])cc2)cc1 — lower, 7.33%
